# The supplement of paper PMC8728848
# The list shows a part of the results.
# How the values were obtained:
# Assay in all cases: glycan array binding signal (z-score within array); higher = stronger binding
# Conditions in all cases: glycan notation: IUPAC condensed, linker removed
# [1] = molecular target: Man(a1-3)[Man(a1-6)]Man(a1-6)[Man(a1-3)]Man
# Procedure, shortened: (§1)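 Glycan array data were curated from 3228 arrays in the Consortium for Functional Glycomics database and kept only where the protein sequence was available. Glycan names were converted to IUPAC-condensed notation, and columns mapping to the same glycan were averaged. The binding signal is a within-array Z-score, averaged across arrays of the same protein sequence at different concentrations or buffers and across linkers. Negative Z-scores can be read as non-binding.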
# [2] = molecular target: Man(a1-3)[Man(a1-6)]Man(a1-6)[Man(a1-3)]Man(b1-4)GlcNAc(b1-4)GlcNAc
# Procedure, shortened: as §1
# [3] = molecular target: Man(a1-3)[Man(a1-6)]Man(b1-4)GlcNAc(b1-4)GlcNAc
# Procedure, shortened: as §1
# [4] = molecular target: Man(a1-3)[Man(a1-6)]Man(b1-4)GlcNAc(b1-4)[Fuc(a1-6)]GlcNAc
# Procedure, shortened: as §1
# [5] = molecular target: Man(a1-6)Man
# Procedure, shortened: as §1
# [6] = molecular target: Man(b1-4)GlcNAc
# Procedure, shortened: as §1
# [7] = molecular target: MurNAc(b1-4)GlcNAc
# Procedure, shortened: as §1
# [8] = molecular target: Neu5Ac(a2-3)Gal
# Procedure, shortened: as §1
# [9] = molecular target: Neu5Ac(a2-3)Gal(b1-3)GalNAc
# Procedure, shortened: as §1
# [10] = molecular target: Neu5Ac(a2-3)Gal(b1-3)GalNAc(b1-3)Gal(a1-4)Gal(b1-4)Glc
# Procedure, shortened: as §1
# [11] = molecular target: Neu5Ac(a2-3)Gal(b1-3)GalNAc(b1-4)Gal(b1-4)Glc
# Procedure, shortened: as §1
# [12] = molecular target: Neu5Ac(a2-3)Gal(b1-3)GalNAc(b1-4)[Neu5Ac(a2-3)]Gal(b1-4)Glc
# Procedure, shortened: as §1
# [13] = molecular target: Neu5Ac(a2-3)Gal(b1-3)GalNAc(b1-4)[Neu5Ac(a2-8)Neu5Ac(a2-3)]Gal(b1-4)Glc
# Procedure, shortened: as §1
# [14] = molecular target: Neu5Ac(a2-3)Gal(b1-3)GalNAc6S
# Procedure, shortened: as §1
# [15] = molecular target: Neu5Ac(a2-3)Gal(b1-3)GlcNAc
# Procedure, shortened: as §1
# [16] = molecular target: Neu5Ac(a2-3)Gal(b1-3)GlcNAc(b1-2)Man
# Procedure, shortened: as §1
# [17] = molecular target: Neu5Ac(a2-3)Gal(b1-3)GlcNAc(b1-2)Man(a1-3)[GlcNAc(b1-4)][Neu5Ac(a2-3)Gal(b1-3)GlcNAc(b1-2)Man(a1-6)]Man(b1-4)GlcNAc(b1-4)GlcNAc
# Procedure, shortened: as §1
# [18] = molecular target: Neu5Ac(a2-3)Gal(b1-3)GlcNAc(b1-2)Man(a1-3)[Neu5Ac(a2-3)Gal(b1-3)GlcNAc(b1-2)Man(a1-6)]Man(b1-4)GlcNAc(b1-4)GlcNAc
# Procedure, shortened: as §1
# [19] = molecular target: Neu5Ac(a2-3)Gal(b1-3)GlcNAc(b1-2)[Neu5Ac(a2-3)Gal(b1-3)GlcNAc(b1-4)]Man(a1-6)[Neu5Ac(a2-3)Gal(b1-3)GlcNAc(b1-2)Man(a1-3)]Man(b1-4)GlcNAc(b1-4)GlcNAc
# Procedure, shortened: as §1
# [20] = molecular target: Neu5Ac(a2-3)Gal(b1-3)GlcNAc(b1-3)Gal(b1-3)GlcNAc
# Procedure, shortened: as §1
# [21] = molecular target: Neu5Ac(a2-3)Gal(b1-3)GlcNAc(b1-3)Gal(b1-4)GlcNAc
# Procedure, shortened: as §1
# [22] = molecular target: Neu5Ac(a2-3)Gal(b1-3)GlcNAc(b1-3)GalNAc
# Procedure, shortened: as §1
# [23] = molecular target: Neu5Ac(a2-3)Gal(b1-3)GlcNAc(b1-6)GalNAc
# Procedure, shortened: as §1
# [24] = molecular target: Neu5Ac(a2-3)Gal(b1-3)GlcNAc6S
# Procedure, shortened: as §1
# [25] = molecular target: Neu5Ac(a2-3)Gal(b1-3)[Fuc(a1-4)]GlcNAc
# Procedure, shortened: as §1
# [26] = molecular target: Neu5Ac(a2-3)Gal(b1-3)[Fuc(a1-4)]GlcNAc(b1-3)Gal(b1-3)[Fuc(a1-4)]GlcNAc
# Procedure, shortened: as §1
# [27] = molecular target: Neu5Ac(a2-3)Gal(b1-3)[Fuc(a1-4)]GlcNAc(b1-3)Gal(b1-4)[Fuc(a1-3)]GlcNAc
# Procedure, shortened: as §1
# [28] = molecular target: Neu5Ac(a2-3)Gal(b1-3)[GlcNAc(b1-6)]GalNAc
# Procedure, shortened: as §1
# [29] = molecular target: Neu5Ac(a2-3)Gal(b1-3)[Neu5Ac(a2-6)]GalNAc
# Procedure, shortened: as §1
# [30] = molecular target: Neu5Ac(a2-3)Gal(b1-3)[Neu5Ac(a2-6)]GlcNAc(b1-3)[Fuc(a1-3)[Gal(b1-4)]GlcNAc(b1-6)]Gal(b1-4)Glc
# Procedure, shortened: as §1
# [31] = molecular target: Neu5Ac(a2-3)Gal(b1-3)]Neu5Ac(a2-3)Gal(b1-4)]GlcNAc
# Procedure, shortened: as §1
# [32] = molecular target: Neu5Ac(a2-3)Gal(b1-4)Glc
# Procedure, shortened: as §1
# [33] = molecular target: Neu5Ac(a2-3)Gal(b1-4)GlcNAc
# Procedure, shortened: as §1
# [34] = molecular target: Neu5Ac(a2-3)Gal(b1-4)GlcNAc(b1-2)Man
# Procedure, shortened: as §1
# [35] = molecular target: Neu5Ac(a2-3)Gal(b1-4)GlcNAc(b1-2)Man(a1-3)[GlcNAc(b1-4)][Neu5Ac(a2-3)Gal(b1-4)GlcNAc(b1-2)Man(a1-6)]Man(b1-4)GlcNAc(b1-4)GlcNAc
# Procedure, shortened: as §1
# [36] = molecular target: Neu5Ac(a2-3)Gal(b1-4)GlcNAc(b1-2)Man(a1-3)[Neu5Ac(a2-3)Gal(b1-4)GlcNAc(b1-2)Man(a1-6)]Man(b1-4)GlcNAc(b1-4)GlcNAc
# Procedure, shortened: as §1
# [37] = molecular target: Neu5Ac(a2-3)Gal(b1-4)GlcNAc(b1-2)Man(a1-3)[Neu5Ac(a2-3)Gal(b1-4)GlcNAc(b1-2)Man(a1-6)]Man(b1-4)GlcNAc(b1-4)[Fuc(a1-6)]GlcNAc
# Procedure, shortened: as §1
# [38] = molecular target: Neu5Ac(a2-3)Gal(b1-4)GlcNAc(b1-2)Man(a1-3)[Neu5Ac(a2-6)Gal(b1-4)GlcNAc(b1-2)Man(a1-6)]Man(b1-4)GlcNAc(b1-4)GlcNAc
# Procedure, shortened: as §1
binder,measurement,setting,value
Epa13 (Candida glabrata) (protein) MGSSHHHHHHSSGLVPRGSHMASDSSENGYAHGCSPSIRAKLKPGLSMEIYSYALRPTDDHCWDSAYLDPMFPRTGYLTHKLLGKAEGIIGPLNFLAKNPACIPAVSTLPLAFHFPKPFTITNFTMLLYGYLSPKKTGKYTFKLLADDLLLMNFGADNAFDCCSHDATKDNIGEYVAYSVWPGVNKNVTVYLESGIYYPLRLFFNNRDAIAQLDFAYYFNDSPIRQTDFSGMFFSIPDSVKCPANI,glycan array binding signal (z-score),[1],-0.473
same,glycan array binding signal (z-score),[2],-0.123
same,glycan array binding signal (z-score),[3],-0.305
same,glycan array binding signal (z-score),[4],0.935
same,glycan array binding signal (z-score),[5],0.143
same,glycan array binding signal (z-score),[6],-0.002
same,glycan array binding signal (z-score),[7],-0.227
same,glycan array binding signal (z-score),[8],-0.372
same,glycan array binding signal (z-score),[9],-0.37
same,glycan array binding signal (z-score),[10],-0.324
same,glycan array binding signal (z-score),[11],-0.145
same,glycan array binding signal (z-score),[12],-0.116
same,glycan array binding signal (z-score),[13],-0.381
same,glycan array binding signal (z-score),[14],-0.476
same,glycan array binding signal (z-score),[15],-0.335
same,glycan array binding signal (z-score),[16],-0.315
same,glycan array binding signal (z-score),[17],0.094
same,glycan array binding signal (z-score),[18],-0.285
same,glycan array binding signal (z-score),[19],-0.373
same,glycan array binding signal (z-score),[20],-0.449
same,glycan array binding signal (z-score),[21],-0.174
same,glycan array binding signal (z-score),[22],-0.168
same,glycan array binding signal (z-score),[23],-0.1
same,glycan array binding signal (z-score),[24],0.379
same,glycan array binding signal (z-score),[25],-0.244
same,glycan array binding signal (z-score),[26],-0.221
same,glycan array binding signal (z-score),[27],-0.039
same,glycan array binding signal (z-score),[28],-0.101
same,glycan array binding signal (z-score),[29],-0.48
same,glycan array binding signal (z-score),[30],-0.357
same,glycan array binding signal (z-score),[31],-0.306
same,glycan array binding signal (z-score),[32],-0.165
same,glycan array binding signal (z-score),[33],-0.202
same,glycan array binding signal (z-score),[34],0.565
same,glycan array binding signal (z-score),[35],-0.336
same,glycan array binding signal (z-score),[36],-0.371
same,glycan array binding signal (z-score),[37],1.08
same,glycan array binding signal (z-score),[38],-0.354
